Assay results from PubChem BioAssay AID1345083 (National Center for Advancing Translational Sciences (NCATS), 2018).
The campaign covered roughly 94,000 compounds. About 6,200 (6.6%) were called active. Inconclusive means that the source gave no clear call. Such entries were picked first, then a sample of the others. The call rests on the fitted dose curve; in most records, active means well fitted inhibition curve with a large enough effect; inconclusive means small, poorly fitted or top-dose-only effect; inactive means flat fitted curve, though single readings scatter. Potencies of inconclusive entries are doubtful fits and often do not repeat.

Experiment: Cytotoxic Profiling in HEK 293 Cell Line of Diverse Libraries Using Quantitative High-Throughput Screening; further: nearly all actives have a fitted effect of over 60% in size
Conditions: HEK 293 viability, ATP luminescence (CellTiter-Glo), 48-72 h; series mostly up to 115 µM
Method in brief: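 Viability of HEK 293 cells, plated at 250 cells/well, was judged by cellular ATP after compound treatment for 48 or 72 hr. Luminescence was imaged 10 min after CellTiter-Glo addition at room temperature.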
Potency means the concentration at half of the fitted maximal effect; tags describe the fitted curve by direction and shape.

SMILES | Potency
Cn1cccc1C(=O)N1CCCC(n2cc(-c3nc(-c4ccccc4)no3)nn2)C1 (configuration not stated) | inconclusive: 50.1 µM [inhibitor, partial curve, poor fit]
COCC(=O)NC1CCN(Cc2cccc(-c3ccc(F)c(F)c3)c2)CC1 | inconclusive: 63.1 µM [inhibitor, partial curve, poor fit]
COc1ccccc1-c1onc(C)c1C(=O)NCc1ccccc1C | inconclusive: 100 µM [inhibitor, partial curve, poor fit]
CNC(=O)c1cc(C2CC2)nc2c1c(C1CCN([S+](=O)([O-])c3c(C)noc3C)CC1)nn2C | inconclusive: 44.7 µM [inhibitor, partial curve, poor fit]
COc1cccc(CN2Cc3cc(NC(=O)c4ccc(F)cc4F)ccc3OC(C)C2=O)c1OC (configuration not stated) | inconclusive: 100 µM [inhibitor, single point]
CC(=O)N1CCc2nn(CC(=O)Nc3ccc(F)c(F)c3)c(=O)cc2C1 | inactive
CCOC(=O)C1c2c(OC)ccc3c2C(=CC(C)(C)CO3)CN1Cc1ccccc1 (configuration not stated) | active: 44.7 µM
O=C(Nc1cc(-c2ccncc2)nn1-c1ccccc1)c1ccc(F)cc1 | inconclusive: 79.4 µM [inhibitor, partial curve]
CN1CCN(Cc2nc(C3(O)CCN(C(=O)Cc4ccccc4)CC3)cs2)CC1 | inactive
CCOc1ccccc1C(=O)N1CCC(Oc2ccc(C(=O)N(C)C)cn2)CC1 | inactive
COc1cccc(-c2cc(C3CCN(C(=O)Nc4ccccc4OC)CC3)[nH]n2)c1 | active: 31.6 µM
Cc1cccc(-c2nocc2CCC(=O)NC2CCN(Cc3ccccc3)CC2)c1 | inconclusive: 50.1 µM [inhibitor, partial curve, poor fit]
CN(C)C(=O)c1cccnc1OC1CCN(S(=O)(=O)Cc2ccccc2F)C1 (configuration not stated) | inactive
Cc1ccc(CN2CCCC3(CN[S+](=O)([O-])c4ccccc4N3)C2)cc1 (configuration not stated) | inconclusive: 44.7 µM [inhibitor, partial curve, poor fit]
COc1ccc(N2CC(c3noc(-c4ccccc4C)n3)CC2=O)cc1 (configuration not stated) | inconclusive: 50.1 µM [inhibitor, partial curve, poor fit]
CCN(CC)C(=O)N1CCCCC1c1noc(COc2ccc(F)cc2)n1 (configuration not stated) | inconclusive: 56.2 µM [inhibitor, partial curve, poor fit]
CC(C(=O)NCC1CC1)N1C(=O)COc2ccc(C(=O)COc3cccc(Cl)c3)cc21 (configuration not stated) | inconclusive: 35.5 µM [inhibitor, partial curve]
CCN1CC2(CCC1=O)CCN(C(=O)c1ccc(OC)c(Cl)c1)CC2 | inactive
CC(=O)NCc1nnc2n1C(C(=O)NCCCc1ccccc1)CC2 (configuration not stated) | inactive
Oc1cccc(-c2cc3c(cn2)NCCN(Cc2ccccc2)C3)c1 | inconclusive: 100 µM [inhibitor, partial curve, poor fit]
Cc1cnc(C2CC2)n1CC1CCN(C(=O)CCCc2ccccc2)CC1 | inconclusive: 11.2 µM [inhibitor, full curve, poor fit]
O=C(Nc1ccc(Cl)cc1)N1CCC(N2CC3CCCN3C2=O)CC1 (configuration not stated) | inconclusive: 22.4 µM [inhibitor, full curve]
CN(C)CCN(C)[C@@H]1[C@H](O)[C@H](CO)O[C@@H]1CNC(=O)Nc1ccccc1 | inactive

SMILES | Potency
CCOC(=O)C1=CN(CC(=O)Nc2ccc(Br)cc2F)S(=O)(=O)N=C1C | inconclusive: 89.1 µM [inhibitor, single point]
COc1cc(NC(=O)Cn2cccc2-c2nc(-c3ccc(F)cc3)no2)cc(OC)c1 | inconclusive: 100 µM [inhibitor, single point]
Cc1cnc(CC2CCN(C(=O)C3CC3)CC2)n1Cc1ccccc1 | inactive
Cc1cc(C(=O)N2CCCC(Cc3noc(-c4cccnc4)n3)C2)nn1C (configuration not stated) | inactive
CCc1nc2cc(N3CCCC(C(=O)NC4CC4)C3)cnc2nc1CC (configuration not stated) | inactive
O=C([C@@H]1C[C@@H](O)[C@H](O)[C@@H]2NC(=S)N(c3ccc(Cl)cc3)[C@@H]21)N1CCCCC1 | inactive
Cc1ccc(C(=O)N2CCCC(C(=O)N3CCC(c4nc5ccncc5[nH]4)C3)C2)cc1 (configuration not stated) | inactive
Fc1ccccc1-c1noc(-c2nc(-c3ccccc3F)no2)n1 | inactive
C=CCOc1c(OC)ccc2c1CN(C(C)C)C(=O)CCN2CC(O)COCc1ccco1 (configuration not stated) | inconclusive: 56.2 µM [inhibitor, partial curve, poor fit]
Fc1cccc(-n2nc(C3CCOC3)nc2CC2CC2)c1 (configuration not stated) | inactive
Cc1ccc(-n2cc(CN3CCN4CCCC4C3)c(-c3cccc(C)c3)n2)cc1 (configuration not stated) | active: 28.2 µM
CC(=O)Nc1ccc(-c2nnc3n2CCN(C(=O)c2ccc(Cl)cc2)C3)cc1 | inactive
C[S+](=O)([O-])N1CC2(Cc3ccccc31)CN([S+](=O)([O-])c1cccs1)C2 | inconclusive: 50.1 µM [inhibitor, partial curve, poor fit]
O=C1NN=C(c2ccncc2)C12CCN([S+](=O)([O-])c1cccc(C(F)(F)F)c1)CC2 | inconclusive: 50.1 µM [inhibitor, partial curve, poor fit]
CCC1(N2CCN(S(=O)(=O)c3ccc(Cl)s3)CC2)CCN(C(=O)C(C)C)C1 (configuration not stated) | inconclusive: 50.1 µM [inhibitor, partial curve, poor fit]
CC(c1cc2ccccc2[nH]1)N(C)C(=O)C1CCN(CC(N)=O)CC1 (configuration not stated) | inactive
O=C(NCc1ccccc1Cl)C1(c2ccc(Cl)cc2)CCOCC1 | inconclusive: 35.5 µM [inhibitor, partial curve]
O=C(NC1CCCN(c2cc(-c3ccc(F)cc3)[nH]n2)C1)c1ccc(Br)cc1 (configuration not stated) | active: 39.8 µM
COC(=O)N(C)Cc1cccc(N2CCN(C(=O)c3c(Cl)cccc3Cl)CC2)c1 | inconclusive: 79.4 µM [inhibitor, partial curve, poor fit]
O=C1Nc2ccc(-c3ccco3)cc2C(=O)N2CCN(C(=O)NC3CCCCC3)C[C@H]12 | inconclusive: 126 µM [inhibitor, single point]
Cc1ccccc1-c1cc2c(nc1-c1ccccc1)nc(C(=O)NCCN(C)C)n2C | active: 35.5 µM
COC(=O)C(=O)N[C@H]1C[C@@H](Cc2cc(-c3ccccc3)on2)C1(C)C | inconclusive: 112 µM [inhibitor, partial curve, poor fit]
COc1ccccc1C(=O)N1CCC(c2n[nH]c(=O)n2-c2ccccc2)CC1 | inactive

SMILES | Potency
Cc1ccc(-c2cc3c(=O)n(CCNC(=O)c4ccccc4F)ccn3n2)cc1C | inconclusive: 10 µM [inhibitor, full curve]
COc1cccc(CN2CCNc3cc(Nc4ccccc4)ncc3C2)c1 | active: 39.8 µM
O=C(c1ccc(C(F)(F)F)cc1)N1CCC2(C1)C(=NC1CCCC1)NC(=O)N2c1cccnc1 (configuration not stated) | inactive
Cc1ccc(S(=O)(=O)N2CCC(CC(=O)NCc3ccccc3)C2)cc1F (configuration not stated) | inactive
O=C1CCN(C(=O)C2CCN(S(=O)(=O)Cc3ccccc3)CC2)CCCCCCN1 | inactive
CC(C)CNC(=O)CN1CCOc2c(O)cc(-c3cccc(Cl)c3)cc2C1 | inconclusive: 50.1 µM [inhibitor, partial curve, poor fit]
COc1cccc(CNC[C@H]2O[C@H](Cc3cc(-c4ccccc4)on3)CC[C@@H]2O)c1 | active: 112 µM
C[C@@H]1CN(Cc2nc3c(n2Cc2ccccc2)C(=O)N(CCOc2ccccc2)CCN3)C[C@H](C)O1 | inconclusive: 56.2 µM [inhibitor, partial curve, poor fit]
O=C(c1ccc(Cl)cc1)N1CCN(c2nccc(Nc3ccccc3Cl)n2)CC1 | active: 22.4 µM
Cc1cc(=O)n(CC(=O)Nc2ccccc2)c(-c2ccc(Cl)cc2)n1 | inconclusive: 31.6 µM [inhibitor, full curve, poor fit]
COc1ccc(CCNc2ncnc3c2CN(c2ccc(C)cc2)C(=O)CN3C)cc1 | inconclusive: 56.2 µM [inhibitor, partial curve, poor fit]
CC[C@H]1CN(C(=O)c2ccccc2)CC[C@H]1CC(=O)NCc1ccc(F)cc1 | inconclusive: 112 µM [inhibitor, partial curve, poor fit]
O=C1c2cc(N3CCOCC3)nc(-c3ccccc3Oc3ccccc3)c2CN1C1COC1 | inconclusive: 22.4 µM [inhibitor, full curve]
COCCNC(=O)c1ccc(OC2CCN(CCC(C)c3ccc(C)o3)CC2)c(Cl)c1 (configuration not stated) | active: 89.1 µM
O=C1OC[C@@H]2CCN(Cc3ccc4c(c3)OCO4)Cc3ccc(F)cc3N12 | inconclusive: 126 µM [inhibitor, single point]
Cc1ccc(-c2nnc(C3CN(C(=O)c4cc(C)nn4C)CC34CCOCC4)o2)cc1 (configuration not stated) | inconclusive: 56.2 µM [inhibitor, partial curve, poor fit]
O=C(NCc1cccc(F)c1)C1(c2ccc(Cl)cc2)CCOCC1 | inconclusive: 70.8 µM [inhibitor, full curve, poor fit]
COc1ccc(OC)c(NC(=O)N2C[C@@H](F)C[C@H]2C(=O)N2CCCCC2)c1 | inactive
Cc1ccc(OCCC2CCN(C(=O)c3ccsc3)C2)cc1 (configuration not stated) | inconclusive: 50.1 µM [inhibitor, partial curve, poor fit]
COc1cc(CN2CC[C@H](CNC(=O)C3CC3)[C@H](N(C)C)C2)cc(OC)c1 | inactive
CCN1CC(C(=O)N(C)Cc2ccc(Oc3ccccc3)cc2)CCC1=O (configuration not stated) | inconclusive: 50.1 µM [inhibitor, partial curve, poor fit]
